The full ranking holds about 4,500 sequences; the median of “median log2 fold change of GCK-ALFA target abundance (FLAG IP / Myc IP barcode read proportion)” is about 0.078, and the lowest 2% start at about -0.6. The list shows a part of the results.
B1: GBRAP_128_3380 (protein)
chain: IDEEKLKKVKELVEKAIESDVEETRKLTREVVELMGELTPEEKEKAAEIVIEKLPEFTKEKLEAIADTIREERPKLDPFGQELAAEVEVEALNEAEELEE
B2: GBRAP_11_2633 (protein)
chain: KKEKIEKAAKLAKEIVKVLEKLLEEGVDNEELQKELKKLIEELKKLVKEIGNKALINDVEVAEELYEEALEDPENREFYIKLLLAQARIIEAELEELLEE
B3: GBRAP_128_3412 (protein)
chain: SREEIVEKARELLEEMLTADEEEQKKLARELADLILESDLETAEAIAEVILEMLPKFTAKQLDILADALRERRDEFTPEKQNLVADVIVAALNEREELEE
B4: GBRAP_160_4634 (protein)
chain: DESLEEMKEIIDEYTEIALEYIDEGDLDGALNALRMMTGDLVMEAMEDEKFSDEDVDELDKLGDKAVAEFEAAKDKSKEELKALVEKAAEELKKKVEEKY
B5: GBRAP_166_4955 (protein)
chain: MLEEVIEETREFIEELAEKMKTANEEEKLELQAEIAERIAEARDAGVSREDILELIGYALEKVKEVGGSVRQFLGAIDIFVDLSEEELDEILERAKEVEA
B6: GBRAP_52_6219 (protein)
chain: MEEEARRKAEEILETVRERGVEAATELLIELAKELSVEELKLVFEELVRLARESSAEVAEALLEALLKAEDALIAAGVPEEDVADAIAALARVAVEKRAA
B7: GBRAP_11_2768 (protein)
chain: KKEELKKAAELAEKAAKTVEKLLKEGVDNEELLKEIEELLKELKKLTEKYGNEDMKKLVKIAEELLEEIKKDPENAEEYAKELKATLDVLAGQYLLEAEE
B8: GBRAP_78_6693 (protein)
chain: EVEELLDKALEHLGKAASILAKMNTPEALDILGKVIDVASTVWEAEEGEADLKELEEALKLLKEALKEAKKIKTEEAKEAAKELEKAIEYLEKAIKLMKK
B9: GBRAP_184_5194 (protein)
chain: KVLEYEIKAENLEELKEKLKELYEKAKKEKADIYIIVDLKNATKEKIEALMNMLKEIKEKGYAKNIYVLVTGNLTEEQIDLIIKKADEAGVKVTLALDEE
B10: GBRAP_11_2687 (protein)
chain: KKEKLEEGAKLAEELAKLIEELLKEGVDNEKLLKELEKKLKELEKLTKEYADKASQKLTEDIKETWEEMLKDPEKAEEYAKEMLAGARVLAGDYLLEIEE
B11: GBRAP_14_3844 (protein)
chain: SEELRKLLLEAVRETVEALRELAPEEYEEKVEEFRERLEKAVEEVLKLGNLEEAERRLIEVAEETVEELFADLPEEERAALRAEAVNTLALKFEEIEEKL
B12: GBRAP_160_4090 (protein)
chain: MEKVKKLIKEIKEEAERAMKMIEGETIEQRAIIVRGLGGDVIMLLFESGVVSEETEDFADEKFDALVETILANPDLTEEEIKALLKEVVEEIIEKIEEEA
B13: GBRAP_11_2920 (protein)
chain: EKEKKKEIAKLAEEAAELVERLIEEGVDNEELLKELEKKIKELKELVEEYGDEADKKEVEIIEELWEEALADPENREEYLKQLRAALLVLSGNYLLELEE
B14: GBRAP_128_3426 (protein)
chain: STEELVARVEELLEAMLTADDEEAAALADEIMELLLAADLATVEAMVEVILAMLPKLTAEKLDILADAFRRHRPLFSPEKQELVAEVEVEALNEAEELEE
B15: GBRAP_160_4499 (protein)
chain: SETLEKAKKEIEEEAELAIEAASEVSDEDAVKIVEAYFGDIAVYLEEEAKLSEENIDKVMEKADEVVAELKAIPKLTPEQIREAVERFKEEAIAILEEEA
B16: GBRAP_160_4836 (protein)
chain: SEKEKKVKEKLEEARDFVLSLVDEVSVDDLANFYDSEVGSVLLELYEEGYINEEAEDKGMELRDEGVAALRAAADASPEELRALIDESIERIEKAILELL
B17: GBRAP_14_3857 (protein)
chain: MEELIKAIKEAAEETIKFAKELLPEHAEEISAKIKELAEEAIKKVKEENLNKEEVAELADEMAEKLGKYIKEKGYANEEEIAALRAHLINEVLLELEKVE
B18: GBRAP_166_4907 (protein)
chain: MKEEKIKKLIEEAKKLIEELKTADEEEALELLIEIGEVLKELKELGASEEEILKLVKETLEAVKEKGFSVKVAAGIIANEADFDEEEIEKLDEIAKEVEE
B19: GBRAP_26_5446 (protein)
chain: IEEEIDALEDELEALIDELLPPELAGPAKAVLLTLLEELEEELEKNIDDEEKQEELVKEFLEELRKELLELGVPEEHVEKIVKAAEEGLEKILKAIKEKK

Biological target: GABARAP, O95166
Sequence (O95166 whole entry, the tested form may be a part): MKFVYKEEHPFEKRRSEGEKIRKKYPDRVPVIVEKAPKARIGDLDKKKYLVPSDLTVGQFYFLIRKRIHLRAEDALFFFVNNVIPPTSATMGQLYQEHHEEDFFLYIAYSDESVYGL
Test: median log2 fold change of GCK-ALFA target abundance (FLAG IP / Myc IP barcode read proportion) (log2 ratio); each designed protein is fused to an ALFA-tag nanobody in HEK293 cells to bring the named protein to FLAG-tagged glucokinase (GCK); Myc marks an untargeted standard; higher = target protein stabilised (more abundant)
Settings: target protein: 3xFLAG-MCP-GCK-ALFA reporter; HEK293 landing pad (RPLP)
Summary of the method: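 Binders fused to an ALFA nanobody were recombined as a library into HEK293 landing-pad cells, which were induced with 2 μg mL^−1 doxycycline and then transfected to express a FLAG-tagged target and a Myc-tagged standard. After 48 h, circular RNA barcodes recovered by anti-FLAG and anti-Myc immunoprecipitation of lysates were reverse transcribed, amplified and sequenced. Each binder's target abundance is the median log2 ratio of FLAG to Myc barcode read proportions, from barcodes present at ≥10^−7 in both replicates, binders carrying ≥3 barcodes per replicate, a 10^−6 pseudocount and pooled replicates.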

| Binder | median log2 fold change |
| --- | --- |
| B1 | 0.0893 |
| B2 | -0.0434 |
| B3 | 0.223 |
| B4 | 0.0771 |
| B5 | -0.0229 |
| B6 | 0.2 |
| B7 | 0.117 |
| B8 | -0.41 |
| B9 | -0.212 |
| B10 | 0.232 |
| B11 | 0.208 |
| B12 | -0.277 |
| B13 | 0.137 |
| B14 | 0.232 |
| B15 | 0.283 |
| B16 | 0.12 |
| B17 | 0.158 |
| B18 | 0.294 |
| B19 | 0.147 |
